# In the supplement of paper PMC8728848:
# The list shows a part of the results.
# Experiments:
# Test in all cases: glycan array binding signal (z-score within array); higher = stronger binding
# Conditions in all cases: glycan notation: IUPAC condensed, linker removed
# [1] = target: GlcNAc(b1-2)[GlcNAc(b1-4)]Man(a1-3)[GlcNAc(b1-4)][GlcNAc(b1-2)[GlcNAc(b1-6)]Man(a1-6)]Man(b1-4)GlcNAc(b1-4)GlcNAc
# Procedure, shortened: (§1)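 Arrays were curated from the Consortium for Functional Glycomics database, 3228 in total, and kept only where the protein sequence was available. Binding is expressed as a within-array Z-score. This score was averaged across arrays of the same protein sequence at different concentrations or buffers and across linkers, and negative values can be read as non-binding.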
# [2] = target: GlcNAc(b1-2)[GlcNAc(b1-4)]Man(a1-3)[GlcNAc(b1-4)][GlcNAc(b1-2)[GlcNAc(b1-6)]Man(a1-6)]Man(b1-4)GlcNAc(b1-4)[Fuc(a1-6)]GlcNAc
# Procedure, shortened: as §1
# [3] = target: GlcNAc(b1-2)[GlcNAc(b1-6)]Man(a1-6)[GlcNAc(b1-2)Man(a1-3)]Man(b1-4)GlcNAc(b1-4)GlcNAc
# Procedure, shortened: as §1
# [4] = target: GlcNAc(b1-2)[GlcNAc(b1-6)]Man(a1-6)[GlcNAc(b1-2)Man(a1-3)]Man(b1-4)GlcNAc(b1-4)[Fuc(a1-6)]GlcNAc
# Procedure, shortened: as §1
# [5] = target: GlcNAc(b1-2)[GlcNAc(b1-6)]Man(a1-6)[GlcNAc(b1-4)][GlcNAc(b1-2)Man(a1-3)]Man(b1-4)GlcNAc(b1-4)GlcNAc
# Procedure, shortened: as §1
# [6] = target: GlcNAc(b1-3)Fuc
# Procedure, shortened: as §1
# [7] = target: GlcNAc(b1-3)Gal
# Procedure, shortened: as §1
# [8] = target: GlcNAc(b1-3)Gal(b1-3)GalNAc
# Procedure, shortened: as §1
# [9] = target: GlcNAc(b1-3)Gal(b1-4)Glc
# Procedure, shortened: as §1
# [10] = target: GlcNAc(b1-3)Gal(b1-4)GlcNAc
# Procedure, shortened: as §1
# [11] = target: GlcNAc(b1-3)Gal(b1-4)GlcNAc(b1-2)Man(a1-3)[GlcNAc(b1-3)Gal(b1-4)GlcNAc(b1-2)Man(a1-6)]Man(b1-4)GlcNAc(b1-4)GlcNAc
# Procedure, shortened: as §1
# [12] = target: GlcNAc(b1-3)Gal(b1-4)GlcNAc(b1-2)Man(a1-3)[GlcNAc(b1-3)Gal(b1-4)GlcNAc(b1-2)Man(a1-6)]Man(b1-4)GlcNAc(b1-4)[Fuc(a1-6)]GlcNAc
# Procedure, shortened: as §1
# [13] = target: GlcNAc(b1-3)Gal(b1-4)GlcNAc(b1-2)[GlcNAc(b1-3)Gal(b1-4)GlcNAc(b1-6)]Man(a1-6)[GlcNAc(b1-3)Gal(b1-4)GlcNAc(b1-2)Man(a1-3)]Man(b1-4)GlcNAc(b1-4)GlcNAc
# Procedure, shortened: as §1
# [14] = target: GlcNAc(b1-3)Gal(b1-4)GlcNAc(b1-3)Gal(b1-4)GlcNAc
# Procedure, shortened: as §1
# [15] = target: GlcNAc(b1-3)Gal(b1-4)GlcNAc(b1-3)Gal(b1-4)GlcNAc(b1-2)Man(a1-3)[GlcNAc(b1-3)Gal(b1-4)GlcNAc(b1-3)Gal(b1-4)GlcNAc(b1-2)Man(a1-6)]Man(b1-4)GlcNAc(b1-4)GlcNAc
# Procedure, shortened: as §1
# [16] = target: GlcNAc(b1-3)Gal(b1-4)GlcNAc(b1-3)Gal(b1-4)GlcNAc(b1-2)Man(a1-3)[GlcNAc(b1-3)Gal(b1-4)GlcNAc(b1-3)Gal(b1-4)GlcNAc(b1-2)Man(a1-6)]Man(b1-4)GlcNAc(b1-4)[Fuc(a1-6)]GlcNAc
# Procedure, shortened: as §1
# [17] = target: GlcNAc(b1-3)Gal(b1-4)GlcNAc(b1-3)Gal(b1-4)GlcNAc(b1-2)[GlcNAc(b1-3)Gal(b1-4)GlcNAc(b1-3)Gal(b1-4)GlcNAc(b1-6)]Man(a1-6)[GlcNAc(b1-3)Gal(b1-4)GlcNAc(b1-3)Gal(b1-4)GlcNAc(b1-2)Man(a1-3)]Man(b1-4)GlcNAc(b1-4)[Fuc(a1-6)]GlcNAc
# Procedure, shortened: as §1
# [18] = target: GlcNAc(b1-3)Gal(b1-4)GlcNAc(b1-3)Gal(b1-4)GlcNAc(b1-3)Gal(b1-4)GlcNAc(b1-2)Man(a1-3)[GlcNAc(b1-3)Gal(b1-4)GlcNAc(b1-3)Gal(b1-4)GlcNAc(b1-3)Gal(b1-4)GlcNAc(b1-2)Man(a1-6)]Man(b1-4)GlcNAc(b1-4)GlcNAc
# Procedure, shortened: as §1
# [19] = target: GlcNAc(b1-3)Gal(b1-4)GlcNAc(b1-3)Gal(b1-4)GlcNAc(b1-3)Gal(b1-4)GlcNAc(b1-2)Man(a1-3)[GlcNAc(b1-3)Gal(b1-4)GlcNAc(b1-3)Gal(b1-4)GlcNAc(b1-3)Gal(b1-4)GlcNAc(b1-2)Man(a1-6)]Man(b1-4)GlcNAc(b1-4)[Fuc(a1-6)]GlcNAc
# Procedure, shortened: as §1
# [20] = target: GlcNAc(b1-3)Gal(b1-4)GlcNAc(b1-3)Gal(b1-4)GlcNAc(b1-3)Gal(b1-4)GlcNAc(b1-2)[GlcNAc(b1-3)Gal(b1-4)GlcNAc(b1-3)Gal(b1-4)GlcNAc(b1-3)Gal(b1-4)GlcNAc(b1-6)]Man(a1-6)[GlcNAc(b1-3)Gal(b1-4)GlcNAc(b1-3)Gal(b1-4)GlcNAc(b1-3)Gal(b1-4)GlcNAc(b1-2)Man(a1-3)]Man(b1-4)GlcNAc(b1-4)[Fuc(a1-6)]GlcNAc
# Procedure, shortened: as §1
# [21] = target: GlcNAc(b1-3)Gal(b1-4)GlcNAc(b1-3)Gal(b1-4)GlcNAc(b1-3)Gal(b1-4)GlcNAc(b1-3)Gal(b1-4)GlcNAc(b1-2)Man(a1-3)[GlcNAc(b1-3)Gal(b1-4)GlcNAc(b1-3)Gal(b1-4)GlcNAc(b1-3)Gal(b1-4)GlcNAc(b1-3)Gal(b1-4)GlcNAc(b1-2)Man(a1-6)]Man(b1-4)GlcNAc(b1-4)GlcNAc
# Procedure, shortened: as §1
# [22] = target: GlcNAc(b1-3)Gal(b1-4)GlcNAc(b1-3)Gal(b1-4)GlcNAc(b1-3)Gal(b1-4)GlcNAc(b1-3)Gal(b1-4)GlcNAc(b1-2)Man(a1-3)[GlcNAc(b1-3)Gal(b1-4)GlcNAc(b1-3)Gal(b1-4)GlcNAc(b1-3)Gal(b1-4)GlcNAc(b1-3)Gal(b1-4)GlcNAc(b1-2)Man(a1-6)]Man(b1-4)GlcNAc(b1-4)[Fuc(a1-6)]GlcNAc
# Procedure, shortened: as §1
# [23] = target: GlcNAc(b1-3)Gal(b1-4)GlcNAc(b1-3)Gal(b1-4)GlcNAc(b1-3)Gal(b1-4)GlcNAc(b1-3)Gal(b1-4)GlcNAc(b1-2)[GlcNAc(b1-3)Gal(b1-4)GlcNAc(b1-3)Gal(b1-4)GlcNAc(b1-3)Gal(b1-4)GlcNAc(b1-3)Gal(b1-4)GlcNAc(b1-6)]Man(a1-6)[GlcNAc(b1-3)Gal(b1-4)GlcNAc(b1-3)Gal(b1-4)GlcNAc(b1-3)Gal(b1-4)GlcNAc(b1-3)Gal(b1-4)GlcNAc(b1-2)Man(a1-3)]Man(b1-4)GlcNAc(b1-4)[Fuc(a1-6)]GlcNAc
# Procedure, shortened: as §1
# [24] = target: GlcNAc(b1-3)Gal(b1-4)GlcNAc(b1-3)Gal(b1-4)GlcNAc(b1-3)GalNAc
# Procedure, shortened: as §1
# [25] = target: GlcNAc(b1-3)Gal(b1-4)GlcNAc(b1-3)GalNAc
# Procedure, shortened: as §1
# [26] = target: GlcNAc(b1-3)Gal(b1-4)GlcNAc(b1-3)[GlcNAc(b1-3)Gal(b1-4)GlcNAc(b1-3)]GalNAc
# Procedure, shortened: as §1
# [27] = target: GlcNAc(b1-3)Gal(b1-4)GlcNAc(b1-6)[Gal(b1-3)]GalNAc
# Procedure, shortened: as §1
# [28] = target: GlcNAc(b1-3)Gal(b1-4)GlcNAc(b1-6)[GlcNAc(b1-3)Gal(b1-3)]GalNAc
# Procedure, shortened: as §1
# [29] = target: GlcNAc(b1-3)Gal(b1-4)GlcNAc(b1-6)[GlcNAc(b1-3)]Gal(b1-4)GlcNAc
# Procedure, shortened: as §1
# [30] = target: GlcNAc(b1-3)GalNAc
# Procedure, shortened: as §1
# [31] = target: GlcNAc(b1-3)Man
# Procedure, shortened: as §1
# [32] = target: GlcNAc(b1-3)[GlcNAc(b1-4)][GlcNAc(b1-6)]GlcNAc
# Procedure, shortened: as §1
# [33] = target: GlcNAc(b1-3)[GlcNAc(b1-6)]Gal(b1-4)GlcNAc
# Procedure, shortened: as §1
# [34] = target: GlcNAc(b1-3)[GlcNAc(b1-6)]GalNAc
# Procedure, shortened: as §1
# [35] = target: GlcNAc(b1-4)Gal(b1-4)GlcNAc
# Procedure, shortened: as §1
# [36] = target: GlcNAc(b1-4)GlcNAc
# Procedure, shortened: as §1
# [37] = target: GlcNAc(b1-4)GlcNAc(b1-4)GlcNAc
# Procedure, shortened: as §1
# [38] = target: GlcNAc(b1-4)GlcNAc(b1-4)GlcNAc(b1-4)GlcNAc(b1-4)GlcNAc
# Procedure, shortened: as §1
binder,measurement,setting,value
Cohesin-mDC-ASGPR (Macaca mulatta) (protein) LDITSHHHHHHDDLDAVRIKVDTVNAKPGDTVRIPVRFSGIPSKGIANCDFVYSYDPNVLEIIEIEPGDIIVDPNPDKSFDTAVYPDRKIIVFLFAEDSGTGAYAITKDGVFATIVAKVKEGAPNGLSVIKFVEVGGFANNDLVEQKTQFFDGGVNVGDTTEPATPTTPVTTPTTTDDLDAASSQNSKFQRDLVTLRTDFSNFTSNTVAEIQALTSQGSSVEEMIASLKAEVEVIKQEQQAVHSEMLLRVQRLMQDLNKLTCQVATLKNNASTERTCCPVNWVEHQDSCYWFSRSGMPWAEAEKHCQLENAHLVVINSREEQNFVQEHLSFAYTWMGLSDREGAWKWVDGTDYETGFQNWKPGQPDDWQGHGLGGGEDCAHFHPDGRWNDDVCQRPYYWVCEAGLTQASQESH,glycan array binding signal (z-score),[1],-0.419
same,glycan array binding signal (z-score),[2],-0.432
same,glycan array binding signal (z-score),[3],-0.398
same,glycan array binding signal (z-score),[4],-0.415
same,glycan array binding signal (z-score),[5],-0.42
same,glycan array binding signal (z-score),[6],-0.425
same,glycan array binding signal (z-score),[7],-0.398
same,glycan array binding signal (z-score),[8],-0.317
same,glycan array binding signal (z-score),[9],-0.404
same,glycan array binding signal (z-score),[10],-0.409
same,glycan array binding signal (z-score),[11],-0.429
same,glycan array binding signal (z-score),[12],-0.375
same,glycan array binding signal (z-score),[13],-0.07
same,glycan array binding signal (z-score),[14],-0.424
same,glycan array binding signal (z-score),[15],-0.331
same,glycan array binding signal (z-score),[16],-0.329
same,glycan array binding signal (z-score),[17],-0.42
same,glycan array binding signal (z-score),[18],-0.431
same,glycan array binding signal (z-score),[19],-0.338
same,glycan array binding signal (z-score),[20],-0.407
same,glycan array binding signal (z-score),[21],-0.372
same,glycan array binding signal (z-score),[22],-0.203
same,glycan array binding signal (z-score),[23],-0.426
same,glycan array binding signal (z-score),[24],-0.422
same,glycan array binding signal (z-score),[25],-0.413
same,glycan array binding signal (z-score),[26],-0.42
same,glycan array binding signal (z-score),[27],-0.381
same,glycan array binding signal (z-score),[28],-0.418
same,glycan array binding signal (z-score),[29],-0.427
same,glycan array binding signal (z-score),[30],-0.389
same,glycan array binding signal (z-score),[31],-0.4
same,glycan array binding signal (z-score),[32],-0.386
same,glycan array binding signal (z-score),[33],-0.432
same,glycan array binding signal (z-score),[34],-0.395
same,glycan array binding signal (z-score),[35],-0.408
same,glycan array binding signal (z-score),[36],-0.409
same,glycan array binding signal (z-score),[37],-0.398
same,glycan array binding signal (z-score),[38],-0.402
